The text below walks through data of publication PMC7556861.

Protein sequences, listed by entry. Tags and fused reporters are not part of them.
UniProt O95292: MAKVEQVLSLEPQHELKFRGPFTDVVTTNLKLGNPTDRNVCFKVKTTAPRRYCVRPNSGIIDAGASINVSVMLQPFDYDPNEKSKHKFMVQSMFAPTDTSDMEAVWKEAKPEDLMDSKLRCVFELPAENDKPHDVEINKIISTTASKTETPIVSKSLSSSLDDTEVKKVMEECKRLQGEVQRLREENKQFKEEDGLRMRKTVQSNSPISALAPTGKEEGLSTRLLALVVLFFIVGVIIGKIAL

No constants are given. Whether binding was seen depends on the method and setting. In cells and extracts the contact can be indirect. Some binding calls cover weakened binding; strength is not graded here. Sequences can lack the tags named with a protein.

Test [1] has as its target T1, MIGA2-HA (human MIGA2, from pcDNA3.1-MIGA2-HA) (human) (UniProt Q7L4E1).
T1 sequence: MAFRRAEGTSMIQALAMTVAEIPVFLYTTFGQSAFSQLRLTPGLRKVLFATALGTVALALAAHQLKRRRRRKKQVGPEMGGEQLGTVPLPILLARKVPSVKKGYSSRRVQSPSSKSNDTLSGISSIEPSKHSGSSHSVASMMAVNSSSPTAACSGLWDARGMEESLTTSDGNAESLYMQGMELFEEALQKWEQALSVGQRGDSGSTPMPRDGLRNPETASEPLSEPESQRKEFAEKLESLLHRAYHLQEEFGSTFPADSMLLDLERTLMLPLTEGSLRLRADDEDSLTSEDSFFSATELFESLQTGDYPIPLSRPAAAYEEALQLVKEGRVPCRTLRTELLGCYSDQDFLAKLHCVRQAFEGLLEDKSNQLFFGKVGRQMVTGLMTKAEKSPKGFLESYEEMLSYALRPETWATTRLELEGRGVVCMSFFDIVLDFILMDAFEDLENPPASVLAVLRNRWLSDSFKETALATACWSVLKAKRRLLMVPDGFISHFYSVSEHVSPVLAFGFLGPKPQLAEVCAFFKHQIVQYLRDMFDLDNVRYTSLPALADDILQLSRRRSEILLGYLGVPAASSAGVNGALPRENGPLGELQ
Kind of test: co-IP; tagged proteins co-expressed in HeLa cells; lysis buffer 150 mM NaCl, 50 mM Tris-HCl pH 8.0, 1 mM EDTA, 0.5% Triton-100, with protease inhibitors and PhosSTOP; HA beads or antibody with Protein A Sepharose, 2-4 hr at 4°C; western blot. (In western blotting, separated proteins are transferred to a membrane and probed.)

In test [2] the target is T2, HA-tagged MIGA1 (human) (UniProt Q8NAN2).
T2 sequence: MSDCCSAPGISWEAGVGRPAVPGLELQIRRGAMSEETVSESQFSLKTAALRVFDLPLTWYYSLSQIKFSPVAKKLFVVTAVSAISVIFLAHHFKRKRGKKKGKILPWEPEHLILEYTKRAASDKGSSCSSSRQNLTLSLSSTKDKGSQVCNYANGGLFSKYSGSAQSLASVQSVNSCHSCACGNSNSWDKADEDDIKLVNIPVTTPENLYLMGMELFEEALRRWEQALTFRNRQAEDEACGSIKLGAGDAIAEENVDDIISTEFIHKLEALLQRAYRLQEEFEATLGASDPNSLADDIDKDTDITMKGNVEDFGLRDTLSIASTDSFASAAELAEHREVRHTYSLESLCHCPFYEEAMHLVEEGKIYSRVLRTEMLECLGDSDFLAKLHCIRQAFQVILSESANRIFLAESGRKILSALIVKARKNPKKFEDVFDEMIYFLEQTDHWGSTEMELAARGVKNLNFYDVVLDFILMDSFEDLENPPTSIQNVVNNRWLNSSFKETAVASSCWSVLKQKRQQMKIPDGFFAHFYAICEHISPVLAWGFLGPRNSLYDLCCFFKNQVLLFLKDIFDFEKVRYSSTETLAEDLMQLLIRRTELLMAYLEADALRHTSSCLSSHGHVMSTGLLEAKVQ
Described as above.

Turning to “VAPB-V5 (human VAPB, from pcDNA3.1-VAPB-V5) (from UniProt O95292 1-243)”, the binding result in test [1] is on record as “binds”; in test [2], “no binding”.
